Laboratory results published in the supplement of paper PMC4967469.

What was measured:
AICAR = compound: NC(=O)c1ncn([C@@H]2O[C@H](CO)[C@@H](O)[C@H]2O)c1N [AICAR]; assay: Viability of human cancer cell lines after 72 h of drug (GDSC screen); settings: top dose 2000 µM; top dose inferred
Procedure: (§1)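 Human cancer cell lines in 384-well plates, medium with 10% serum, drug for 72 h over a 256-fold dose range (nine 2-fold or five 4-fold steps up to the top dose). Adherent lines were fixed and stained with the nucleic acid dye Syto60, suspension lines read with resazurin; signal relative to control wells, capped at 0 and 100%. One two-parameter sigmoid per drug and line, fitted in a mixed model over all curves with the slope shared within a line.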

AKT inhibitor VIII = compound: O=c1[nH]c2ccccc2n1C1CCN(Cc2ccc(-c3[nH]c4cc5ncnc5cc4nc3-c3ccccc3)cc2)CC1 [AKT inhibitor VIII]; assay: as above; settings: top dose inferred
Procedure: as §1

[1] = top dose 2.56 µM, screen: GDSC drug entry 171
[2] = top dose 10.24 µM, screen: GDSC drug entry 228

| Cell Line | AUC (AICAR) | pIC50 (AICAR) | AUC (AKT inhibitor VIII; [1]) | pIC50 (AKT inhibitor VIII; [1]) | AUC (AKT inhibitor VIII; [2]) | pIC50 (AKT inhibitor VIII; [2]) |
| --- | --- | --- | --- | --- | --- | --- |
| LU-135 (small cell lung carcinoma, suspension) | 0.818 | 3.05 | 0.904 | 5.62 | 0.901 | 5.03 |
| LU-165 (small cell lung carcinoma, suspension) | 0.988 | < 2.70 | 0.982 | < 5.59 | 0.762 | 5.39 |
| LXF-289 (lung adenocarcinoma, adherent) | 0.842 | 2.86 | 0.841 | 5.76 | 0.796 | 5.33 |
| LoVo (large intestine, adherent) | 0.923 | < 2.70 | 0.895 | < 5.59 | 0.953 | < 4.99 |
| M14 (melanoma, adherent) | 0.89 | < 2.70 | 0.956 | < 5.59 | 0.976 | < 4.99 |
| M059J (glioma, adherent) | 0.892 | < 2.70 | 0.955 | < 5.59 | 0.94 | < 4.99 |
| MC-CAR (haematopoietic neoplasm, suspension) | 0.569 | 3.73 | 0.938 | < 5.59 | 0.505 | 6.18 |
| MC-IXC (neuroblastoma, adherent) | 0.914 | 2.82 | 0.877 | 5.84 | 0.895 | 5.18 |
| MCF7 (breast, adherent) | 0.823 | 2.91 | 0.95 | < 5.59 | 0.986 | < 4.99 |
| MDA-MB-175-VII (breast, adherent) | 0.956 | < 2.70 | 0.918 | < 5.59 | 0.658 | 5.74 |
| MDA-MB-231 (breast, adherent) | 0.837 | 2.84 | 0.979 | < 5.59 | 0.916 | < 4.99 |
| MDA-MB-330 (breast, adherent) | 0.953 | < 2.70 | 0.743 | 6.05 | 0.695 | 5.61 |
| MDA-MB-361 (breast, adherent) | 0.846 | 2.84 | 0.69 | 6.26 | 0.695 | 5.65 |
| MDA-MB-415 (breast, adherent) | 0.748 | 3.08 | 0.794 | 5.78 | 0.86 | < 4.99 |
| MDA-MB-436 (breast, adherent) | 0.929 | < 2.70 | 0.946 | < 5.59 | 0.946 | < 4.99 |
| MDA-MB-468 (breast, adherent) | 0.89 | < 2.70 | 0.889 | < 5.59 | 0.873 | 5.04 |

pIC50: −log10 of the molar value. The IC50 comes from the fitted curve, where viability falls to half of the control; a limit (>, <) means that the fit lies beyond the doses tested. AUC sums up the same curve from the lowest dose to the 256-fold higher top dose; values near 1 show little effect. Where the top dose is marked as inferred, it was calculated from the reported fits. For part of these data: Drugs with an entry number were screened twice under separate entries, and the two screens often disagree.
